pIC50: −log10 of the molar value. By IC50 is meant the dose at which the fit gives 50% viability; a limit (>, <) means that the fit lies beyond the doses tested. For AUC the same curve is integrated over the 256-fold range of doses and scaled to a fraction: 1 means no effect, lower means more sensitive. For some assays here: Where the top dose is marked as inferred, it was derived from the fitted curves, not read from the paper.
Legend:
Experiment in all cases: Viability of human cancer cell lines after 72 h of drug (GDSC screen)
Vorinostat = compound: O=C(CCCCCCC(=O)Nc1ccccc1)NO [Vorinostat]; conditions: top dose 10 µM
Method: (§1)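 Human cancer cell lines in 384-well plates, medium with 10% serum, drug for 72 h over a 256-fold dose range (nine 2-fold or five 4-fold steps up to the top dose). Adherent lines were fixed and stained with the nucleic acid dye Syto60, suspension lines read with resazurin; signal relative to control wells, capped at 0 and 100%. One two-parameter sigmoid per drug and line, fitted in a mixed model over all curves with the slope shared within a line.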

SN-38 = compound: CCc1c2c(nc3ccc(O)cc13)-c1cc3c(c(=O)n1C2)COC(=O)[C@]3(O)CC [SN-38]; conditions: top dose 0.05 µM; top dose inferred
Method: as §1

Dabrafenib = compound: CC(C)(C)c1nc(-c2cccc(NS(=O)(=O)c3c(F)cccc3F)c2F)c(-c2ccnc(N)n2)s1 [Dabrafenib]; conditions: top dose 10 µM
Method: as §1

Methotrexate = compound: CN(Cc1cnc2nc(N)nc(N)c2n1)c1ccc(C(=O)N[C@@H](CCC(=O)O)C(=O)O)cc1 [Methotrexate]; conditions: top dose 0.2 µM
Method: as §1

Axitinib = compound: CNC(=O)c1ccccc1Sc1ccc2c(/C=C/c3ccccn3)n[nH]c2c1 [Axitinib]; conditions: top dose 2 µM
Method: as §1

Cell Line	AUC (Vorinostat)	pIC50 (Vorinostat)	AUC (SN-38)	pIC50 (SN-38)	AUC (Dabrafenib)	pIC50 (Dabrafenib)	AUC (Methotrexate)	pIC50 (Methotrexate)	AUC (Axitinib)	pIC50 (Axitinib)
RKN (ovary, adherent)	0.683	5.68	0.489	8.53	0.728	5.54	0.986	< 6.70	0.98	< 5.70
huH-1 (liver, adherent)	0.627	5.82	0.743	7.73	0.979	< 5.00	0.96	< 6.70	0.92	< 5.70
SW962 (urogenital system, adherent)	0.806	5.18	0.658	8.02	0.958	< 5.00	0.979	< 6.70	0.962	< 5.70
EW-22 (Ewing sarcoma, adherent)	0.686	5.69	0.21	9.34	0.981	< 5.00	0.872	6.75	0.971	< 5.70
OVK-18 (ovary, adherent)	0.489	6.23	0.671	8.00	0.967	< 5.00	0.982	< 6.70	0.8	5.96
HMV-II (melanoma, adherent)	0.783	5.28	0.777	7.61	0.739	5.45	0.932	< 6.70	0.981	< 5.70
EW-7 (Ewing sarcoma, semi-adherent)	0.566	6.03	0.333	8.94	0.985	< 5.00	0.729	7.29	0.971	< 5.70
CCF-STTG1 (glioma, adherent)	0.873	5.01	0.687	7.98	0.987	< 5.00	0.985	< 6.70	0.848	5.82
CS1 (bone, adherent)	0.546	6.07	0.528	8.42	0.982	< 5.00	0.93	< 6.70	0.931	< 5.70
H513 (mesothelioma, semi-adherent)	0.868	< 5.00	0.788	7.56	0.963	< 5.00	0.864	< 6.70	0.985	< 5.70
H2869 (mesothelioma, adherent)	0.864	< 5.00	0.854	< 7.30	0.938	< 5.00	0.984	< 6.70	0.898	< 5.70
Ramos-2G6-4C10 (Burkitt lymphoma, suspension)	0.392	6.48	0.915	< 7.30	0.99	< 5.00	0.708	7.36	0.886	5.78
NCI-H1436 (small cell lung carcinoma, suspension)	0.74	5.47	0.905	< 7.30	0.968	< 5.00	0.962	< 6.70	0.974	< 5.70
RH-18 (rhabdomyosarcoma, adherent)	0.691	5.63	0.883	< 7.30	0.976	< 5.00	0.979	< 6.70	0.959	< 5.70
NCI-H1770 (non-small cell lung carcinoma, suspension)	0.632	5.86	0.943	< 7.30	0.991	< 5.00	0.992	< 6.70	0.986	< 5.70
SW982 (soft tissue, adherent)	0.795	5.32	0.297	9.09	0.242	6.96	0.981	< 6.70	0.935	< 5.70
EW-3 (Ewing sarcoma, adherent)	0.532	6.11	0.263	9.23	0.932	< 5.00	0.806	6.92	0.966	< 5.70
OSC-20 (head and neck, adherent)	0.734	5.48	0.662	8.02	0.953	< 5.00	0.96	< 6.70	0.918	< 5.70
KINGS-1 (glioma, adherent)	0.821	5.05	0.861	< 7.30	0.865	< 5.00	0.878	< 6.70	0.936	< 5.70
TE-15 (oesophagus, suspension)	0.68	5.67	0.887	< 7.30	0.965	< 5.00	0.963	< 6.70	0.983	< 5.70
U-698-M (B-cell leukaemia, suspension)	0.592	5.95	0.806	7.60	0.978	< 5.00	0.443	8.06	0.953	< 5.70

Cell Line	AUC (Vorinostat)	pIC50 (Vorinostat)	AUC (SN-38)	pIC50 (SN-38)	AUC (Dabrafenib)	pIC50 (Dabrafenib)	AUC (Methotrexate)	pIC50 (Methotrexate)	AUC (Axitinib)	pIC50 (Axitinib)
NCI-H345 (small cell lung carcinoma, suspension)	0.703	5.62	0.951	< 7.30	0.989	< 5.00	0.989	< 6.70	0.99	< 5.70
LB1047-RCC (kidney, adherent)	0.629	5.83	0.651	8.06	0.511	6.17	0.981	< 6.70	0.898	< 5.70
PE/CA-PJ15 (head and neck, adherent)	0.728	5.53	0.555	8.35	0.964	< 5.00	0.983	< 6.70	0.986	< 5.70
HuO-3N1 (osteosarcoma, adherent)	0.805	5.15	0.867	< 7.30	0.966	< 5.00	0.944	< 6.70	0.939	< 5.70
TE-11 (oesophagus, adherent)	0.8	5.36	0.707	7.95	0.976	< 5.00	0.964	< 6.70	0.944	< 5.70
NCI-H2291 (lung adenocarcinoma, adherent)	0.894	< 5.00	0.932	< 7.30	0.841	< 5.00	0.971	< 6.70	0.983	< 5.70
NUGC-4 (stomach, adherent)	0.526	6.13	0.894	< 7.30	0.986	< 5.00	0.924	< 6.70	0.979	< 5.70
KU-19-19 (bladder, adherent)	0.74	5.52	0.406	8.76	0.617	5.88	0.925	< 6.70	0.987	< 5.70
HN (head and neck, adherent)	0.679	5.72	0.42	8.72	0.942	< 5.00	0.977	< 6.70	0.959	< 5.70
ESS-1 (endometrium, adherent)	0.806	5.35	0.371	8.84	0.988	< 5.00	0.955	< 6.70	0.921	< 5.70
SK-GT-4 (oesophagus, adherent)	0.699	5.58	0.949	< 7.30	0.941	< 5.00	0.974	< 6.70	0.938	< 5.70
NCI-H1435 (lung adenocarcinoma, semi-adherent)	0.539	6.10	0.944	< 7.30	0.992	< 5.00	0.988	< 6.70	0.986	< 5.70
CHSA0011 (chondrosarcoma, adherent)	0.917	< 5.00	0.699	7.84	0.827	5.01	0.978	< 6.70	0.814	5.77
SNU-C5 (large intestine, adherent)	0.681	5.68	0.615	8.17	0.78	5.34	0.655	7.45	0.939	< 5.70
NCI-H1944 (lung adenocarcinoma, adherent)	0.802	5.27	0.72	7.86	0.98	< 5.00	0.985	< 6.70	0.956	< 5.70
OV-56 (ovary, adherent)	0.717	5.60	0.724	7.88	0.976	< 5.00	0.97	< 6.70	0.95	< 5.70
COLO-679 (melanoma, adherent)	0.83	5.13	0.752	7.74	0.145	7.39	0.984	< 6.70	0.985	< 5.70
KLE (endometrium, adherent)	0.854	< 5.00	0.925	< 7.30	0.915	< 5.00	0.952	< 6.70	0.978	< 5.70
ETK-1 (biliary tract, adherent)	0.761	5.40	0.797	7.56	0.95	< 5.00	0.917	< 6.70	0.937	< 5.70
YT (lymphoid neoplasm, suspension)	0.435	6.37	0.744	7.87	0.992	< 5.00	0.968	< 6.70	0.972	< 5.70

From the supplement of paper PMC4967469
